These are yes or no findings as the source states them, for the method shown. In cells and extracts the contact can be indirect. Some binding calls cover weakened binding; strength is not graded here.
What was measured:
[1] = target: myc-tagged FAN1^FL (human) (UniProt Q9Y2M0); test: cross-linking; xIP-MS: myc-FAN1 from HEK293T lysate on anti-c-myc magnetic beads, on-bead cross-linking with 1 mM BS3 d0/d12, 30 min, 37°C, mass spectrometry (xQuest/xProphet)
[2] = target: GFP-FAN1, full-length FAN1 (FAN1^FL) (human) (UniProt Q9Y2M0); test: co-IP; GFP-Trap beads on extracts of U2OS cells expressing GFP-FAN1 constructs; endogenous partners detected by blot; IP buffer 20 mM Tris pH 7.4, 150 mM NaCl, 1 mM EDTA, 1% Triton X-100, Benzonase
[3] = target: FAN1 (endogenous, human) (human (endogenous in HD iPSCs, lymphoblastoid cells, MSNs)) (UniProt Q9Y2M0); test: cross-linking; xIP-MS: endogenous FAN1 from lymphoblastoid cell lysate with sheep FAN1 antibody and protein G magnetic beads, on-bead cross-linking with 1 mM BS3 d0/d12, 30 min, 37°C, mass spectrometry (xQuest/xProphet)
[4] = target: FAN1 (endogenous, human) (human (endogenous in HD iPSCs, lymphoblastoid cells, MSNs)) (UniProt Q9Y2M0); test: co-IP; endogenous proteins in extracts of HD iPSCs (125 CAG); FAN1 sheep polyclonal or MLH1 monoclonal antibody with protein G magnetic beads; IP buffer 20 mM Tris pH 7.4, 150 mM NaCl, 1 mM EDTA, 1% Triton X-100, Benzonase

Protein sequences, listed by entry. Tags and fused reporters are not part of them.
UniProt Q9Y2M0: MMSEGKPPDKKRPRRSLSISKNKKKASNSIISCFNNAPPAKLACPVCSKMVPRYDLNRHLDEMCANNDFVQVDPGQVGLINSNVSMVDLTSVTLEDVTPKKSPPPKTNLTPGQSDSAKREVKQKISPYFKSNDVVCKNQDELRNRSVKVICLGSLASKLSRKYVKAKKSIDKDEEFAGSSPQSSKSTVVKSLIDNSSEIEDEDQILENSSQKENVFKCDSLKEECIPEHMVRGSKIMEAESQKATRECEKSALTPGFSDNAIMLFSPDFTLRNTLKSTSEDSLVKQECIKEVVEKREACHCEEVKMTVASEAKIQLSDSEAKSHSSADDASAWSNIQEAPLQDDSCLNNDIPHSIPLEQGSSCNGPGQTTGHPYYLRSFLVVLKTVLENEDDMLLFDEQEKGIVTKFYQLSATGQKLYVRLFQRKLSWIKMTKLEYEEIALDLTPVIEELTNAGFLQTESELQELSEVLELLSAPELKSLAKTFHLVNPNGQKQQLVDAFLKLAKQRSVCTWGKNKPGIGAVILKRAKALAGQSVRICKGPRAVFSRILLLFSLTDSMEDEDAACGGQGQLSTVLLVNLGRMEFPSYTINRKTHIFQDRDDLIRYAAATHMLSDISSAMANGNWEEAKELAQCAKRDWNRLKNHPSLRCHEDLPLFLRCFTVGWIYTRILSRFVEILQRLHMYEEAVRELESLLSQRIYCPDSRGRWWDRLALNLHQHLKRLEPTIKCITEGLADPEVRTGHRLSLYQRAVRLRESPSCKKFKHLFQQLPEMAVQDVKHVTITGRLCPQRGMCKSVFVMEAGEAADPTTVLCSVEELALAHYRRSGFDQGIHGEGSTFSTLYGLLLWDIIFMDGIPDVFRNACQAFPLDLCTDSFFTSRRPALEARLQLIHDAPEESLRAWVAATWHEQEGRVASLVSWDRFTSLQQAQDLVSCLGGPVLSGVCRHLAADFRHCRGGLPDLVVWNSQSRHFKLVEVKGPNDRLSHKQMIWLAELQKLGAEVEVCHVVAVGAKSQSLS

Measured: binding

B1: PMS2 (endogenous, human) (protein, UniProt P54278 1-862)
chain: MERAESSSTEPAKAIKPIDRKSVHQICSGQVVLSLSTAVKELVENSLDAGATNIDLKLKDYGVDLIEVSDNGCGVEEENFEGLTLKHHTSKIQEFADLTQVETFGFRGEALSSLCALSDVTISTCHASAKVGTRLMFDHNGKIIQKTPYPRPRGTTVSVQQLFSTLPVRHKEFQRNIKKEYAKMVQVLHAYCIISAGIRVSCTNQLGQGKRQPVVCTGGSPSIKENIGSVFGQKQLQSLIPFVQLPPSDSVCEEYGLSCSDALHNLFYISGFISQCTHGVGRSSTDRQFFFINRRPCDPAKVCRLVNEVYHMYNRHQYPFVVLNISVDSECVDINVTPDKRQILLQEEKLLLAVLKTSLIGMFDSDVNKLNVSQQPLLDVEGNLIKMHAADLEKPMVEKQDQSPSLRTGEEKKDVSISRLREAFSLRHTTENKPHSPKTPEPRRSPLGQKRGMLSSSTSGAISDKGVLRPQKEAVSSSHGPSDPTDRAEVEKDSGHGSTSVDSEGFSIPDTGSHCSSEYAASSPGDRGSQEHVDSQEKAPKTDDSFSDVDCHSNQEDTGCKFRVLPQPTNLATPNTKRFKKEEILSSSDICQKLVNTQDMSASQVDVAVKINKKVVPLDFSMSSLAKRIKQLHHEAQQSEGEQNYRKFRAKICPGENQAAEDELRKEISKTMFAEMEIIGQFNLGFIITKLNEDIFIVDQHATDEKYNFEMLQQHTVLQGQRLIAPQTLNLTAVNEAVLIENLEIFRKNGFDFVIDENAPVTERAKLISLPTSKNWTFGPQDVDELIFMLSDSPGVMCRPSRVKQMFASRACRKSVMIGTALNTSEMKKLITHMGEMDHPWNCPHGRPTMRHIANLGVISQN
binds: all assays above
